According to PubChem BioAssay AID1721 (National Center for Advancing Translational Sciences (NCATS), 2009):
Among all 290,000 compounds or so, about 1,100 (0.38%) were called active. Inconclusive means that the source gave no clear call. Such entries were picked first, then a sample of the others. The call rests on the fitted dose curve; in most records, active means well fitted inhibition curve with a large enough effect; inconclusive means small, poorly fitted or top-dose-only effect, or another doubt; inactive means no such curve, though single readings can be large or run the other way. Where the call is inconclusive, the potency comes from a doubtful curve fit.
On the % scale 0 is the no-effect control and ±100 the full control effect; potency means the concentration at half of the fitted maximal effect; tags describe the fitted curve by direction and shape.

What follows are compounds tested against Pyruvate kinase (Leishmania mexicana) (UniProt Q27686) (assay: qHTS Assay for Inhibitors of Leishmania Mexicana Pyruvate Kinase (LmPK)). Details: purified LmPK, Kinase-Glo ATP luminescence, 1 h; activity change, negative = inhibition: at 57.5 µM (top of the series) unless noted.
Sequence of UniProt Q27686 (Q27686 whole entry, looked up): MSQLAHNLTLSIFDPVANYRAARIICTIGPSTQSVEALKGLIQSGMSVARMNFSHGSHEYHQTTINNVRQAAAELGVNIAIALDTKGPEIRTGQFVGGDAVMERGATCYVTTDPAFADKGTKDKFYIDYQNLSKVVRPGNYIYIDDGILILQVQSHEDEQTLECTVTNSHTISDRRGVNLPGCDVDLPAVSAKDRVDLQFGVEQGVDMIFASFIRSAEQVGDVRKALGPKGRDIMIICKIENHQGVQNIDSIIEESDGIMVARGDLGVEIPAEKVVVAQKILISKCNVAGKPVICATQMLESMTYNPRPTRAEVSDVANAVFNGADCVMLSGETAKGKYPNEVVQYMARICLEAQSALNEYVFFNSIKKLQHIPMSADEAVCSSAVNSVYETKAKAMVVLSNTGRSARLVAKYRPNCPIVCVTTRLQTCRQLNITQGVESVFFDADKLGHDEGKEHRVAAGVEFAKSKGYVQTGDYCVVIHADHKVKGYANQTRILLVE
How it was run: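 Kinase-Glo luminescence read after 1 h RT reaction of 0.1 nM LmPK with 0.5 mM PEP and 0.1 mM ADP. Activity scaled between uninhibited and enzyme-free controls.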
With `COC(=O)c1cc(-c2ccc(Cl)cc2Cl)n[nH]1` the “activity change, negative = inhibition” value was inactive: -1.81%. In the case of `CCCC(=O)c1ccc(N2CCN(C(=O)c3ccccc3)CC2)c(F)c1`, the “activity change, negative = inhibition” value is reported as inactive: 6.4%. `O=C(Nc1cccs1)Nc1ccccc1Br` was tested, and the “activity change, negative = inhibition” value was inactive: -1.81%. For `CCOc1ccc2nc(/N=C/c3c(C)[nH]n(-c4ccc(C)cc4)c3=O)sc2c1`, the Potency was active: 14.1 µM. With `Cc1ccnc(Nc2nc(-c3ccc(O)c(O)c3)cs2)c1` the Potency was inconclusive: 2.82 µM [falling, partial curve]. For `O=C(Nc1ccc(N2CCCCC2)cc1)c1ccc(F)cc1`, the Potency was inconclusive: 14.1 µM [falling, partial curve]. `O=C1N/C(=C\c2ccc(O)cc2)C(=O)c2ccccc21` was tested, and the Potency was active: 10 µM. `CCN(CC)c1ccc(C=C2C(=O)N(C)C(=S)N(C)C2=O)o1` was tested, and the “activity change, negative = inhibition” value was inactive: -9.11%. With `Cc1ccc(S/C=C\C(=O)c2ccccc2)cc1` the Potency was inconclusive: 35.5 µM [falling, partial curve]. In the case of `CC1=C(C(=O)Nc2ccc(F)c(F)c2)C(c2cccs2)NC(=S)N1` (configuration not stated), the “activity change, negative = inhibition” value is reported as inactive: 2.94%. With `S=c1[nH]ncn1/N=C/c1cccc(Oc2ccccc2)c1` the Potency was active: 10 µM. For `Cc1ccc(-n2c(CCc3ccccc3)n[nH]c2=S)cc1C`, the Potency was active: 14.1 µM. With `CC1CCCCC1n1c(-c2cccnc2)n[nH]c1=S` (configuration not stated) the Potency was active: 20 µM. In the case of `CN(C)c1cccc2c1c(NS(=O)(=O)c1cn(C)cn1)nn2C`, the “activity change, negative = inhibition” value is reported as inactive: -4.25%. `COc1ccc(/C(C)=N/Nc2nc3ccccc3nc2C)cc1OC` was tested, and the “activity change, negative = inhibition” value was inactive: 4.63%. With `Cc1cccc(-n2c(-c3ccoc3C)n[nH]c2=S)c1` the Potency was inconclusive: 8.91 µM [falling, partial curve]. With `O=C1C(Cl)=C(NC(=O)c2ccccc2)C(=O)C(Cl)=C1NC(=O)c1ccccc1` the Potency was active: 1.12 µM. `Cn1c(-c2ccc(N)cc2)nc2ccccc21` was tested, and the Potency was inconclusive: 28.2 µM [falling, partial curve]. In the case of `COc1cccc(OCC(O)CN2CCN(C)CC2)c1` (configuration not stated), the “activity change, negative = inhibition” value is reported as inactive: -6.83%. With `CC(=O)CC(=O)Nc1ccc(C(N)=O)cc1` the “activity change, negative = inhibition” value was inactive: 1.34%. In the case of `CC(=O)c1sc(NC(=O)C=C(C)C)nc1C`, the Potency is reported as inconclusive: 12.6 µM [falling, partial curve]. In the case of `COC(=O)c1nn2c(C(F)(F)F)cc(-c3ccc(Br)o3)nc2c1Br`, the “activity change, negative = inhibition” value is reported as inactive: 4.65%. With `Cc1ccc(CNC(=O)CCC(=O)N2CC(C)Oc3ccccc32)cc1` (configuration not stated) the “activity change, negative = inhibition” value was inactive: -0.26%. For `Cc1cc(O)c(N)c(C)c1Cl`, the Potency was inconclusive: 1.26 µM [falling, full curve]. For `S=c1[nH]nc(Cc2ccc(Cl)cc2)n1-c1ccc2c(c1)OCCO2`, the Potency was inconclusive: 8.91 µM [falling, partial curve]. `C(=C\c1ccco1)/c1ccc2ccccc2n1` was tested, and the Potency was inconclusive: 39.8 µM [falling, single point]. For `Cc1ccc(-n2sc3ccccc3c2=O)cc1`, the Potency was active: 20 µM. For `Clc1ncccc1-c1nnn(-c2ccccc2)n1`, the Potency was active: 15.8 µM. In the case of `[O-][n+]1onc2c1CCC(=N/O)/C2=N\Nc1ccccc1`, the Potency is reported as inconclusive: 14.1 µM [falling, partial curve]. In the case of `O=C(NC1CCN(CC(=O)N(c2ccccc2)c2ccccc2)CC1)c1ccc([N+](=O)[O-])cc1`, the “activity change, negative = inhibition” value is reported as inactive: -3.92%. In the case of `CCN1/C(=C2\C(=O)N(C)C(=S)N2C)C=Cc2cc(OC)ccc21`, the Potency is reported as inconclusive: 25.1 µM [falling, partial curve]. With `CCOC(=O)C1=C(C)Nc2nc(=S)[nH]n2C1c1ccc(Cl)cc1` (configuration not stated) the Potency was inconclusive: 3.98 µM [falling, full curve, poor fit]. For `CCOc1ccc(NC(=O)c2nn(C)cc2Br)cc1`, the Potency was active: 31.6 µM. `COc1ccc(NS(=O)(=O)c2ccc(-c3n[nH]c(=S)n3Cc3ccccc3)cc2)cc1` was tested, and the Potency was inconclusive: 25.1 µM [falling, single point]. In the case of `Cc1ccc(C(=O)N/N=C\c2c(C)nn(-c3ccccc3)c2Cl)cn1`, the Potency is reported as inconclusive: 22.4 µM [falling, partial curve]. With `O=C(/C=C/c1c(F)cccc1Cl)Nc1nc2ccccc2[nH]1` the “activity change, negative = inhibition” value was inactive: 2.25%. For `CC/C(C)=N/Nc1nc(-c2cc3cccc(OC)c3oc2=O)cs1`, the Potency was inconclusive: 22.4 µM [falling, single point]. In the case of `Cc1ccc(C)c2c1cc(C)c1nnc(SCC(=O)Nc3cccc(C(=O)O)c3)n12`, the Potency is reported as inconclusive: 31.6 µM [falling, single point]. For `Cc1cccn2c(N)c(-c3ccccc3)nc12`, the Potency was inconclusive: 31.6 µM [falling, single point]. With `Cc1cc(C)c(NC(=O)c2c[nH]c(=S)n2-c2ccc(F)cc2)c(C)c1` the Potency was inconclusive: 25.1 µM [falling, single point]. For `O=C(NNC(=O)c1c(F)cccc1F)c1ccccc1OC(F)(F)F`, the “activity change, negative = inhibition” value was inactive: -3.21%. With `COc1ccc(NC(=O)c2ccc(OC(F)F)cc2)cc1Cl` the Potency was inconclusive: 15.8 µM [falling, partial curve]. With `C=CCn1c(-c2ccc3[nH]c(C)c(C)c3c2)n[nH]c1=S` the Potency was inconclusive: 11.2 µM [falling, partial curve]. `Cc1ccc(C)c(N=Nc2nc3ccccc3n2C)c1` was tested, and the Potency was inconclusive: 15.8 µM [falling, partial curve]. In the case of `S=c1[nH]ccn1-c1ccc(Cl)cc1`, the Potency is reported as active: 25.1 µM. For `Cc1ccc(NC(=O)C2COc3ccccc3O2)c(C)c1` (configuration not stated), the “activity change, negative = inhibition” value was inactive: 0.861%. With `O=C(Nc1ccc(OC(F)(F)F)cc1)c1cnc2n(c1=O)CCS2` the “activity change, negative = inhibition” value was inactive: 2.28%. In the case of `COc1ccc(OC)c(N(CC(=O)NCCSCc2ccco2)S(=O)(=O)c2ccccc2)c1`, the “activity change, negative = inhibition” value is reported as inactive: -3.02%. `O=C(CBr)c1ccc([N+](=O)[O-])c(CS(=O)(=O)c2ccc(Cl)cc2)c1` was tested, and the Potency was inconclusive: 6.31 µM [falling, single point]. In the case of `O=C(Nc1cccc(F)c1)c1ccc2c(c1)OCO2`, the Potency is reported as inconclusive: 20 µM [falling, partial curve]. In the case of `CCN1/C(=C/c2ccc3ccccc3[n+]2CC)C=Cc2ccccc21`, the Potency is reported as active: 14.1 µM. For `CCN1C(c2ccccc2)=C(c2ccccc2)S/C1=C/C=C1\SC(=S)N(C)C1=O`, the Potency was inconclusive: 14.1 µM [falling, partial curve]. For `Cc1ccc(C(=O)Oc2oc(-c3ccco3)nc2C=Nc2ccccc2)cc1`, the Potency was inconclusive: 17.8 µM [falling, single point]. With `Cc1nc(N)nc(N/N=C/c2ccccc2)n1` the “activity change, negative = inhibition” value was inactive: -8.67%. `Cc1ccc2nc(-c3ccc(N)cc3)sc2c1` was tested, and the Potency was inconclusive: 12.6 µM [falling, partial curve]. With `CCNC(=O)NC(=O)COC(=O)c1ccccc1SCC(=O)NC(=O)NCC` the Potency was inconclusive: 14.1 µM [falling, partial curve]. In the case of `CCOc1cc(C2C3=C(CCCC3=O)N(CC(=O)O)C3=C2C(=O)CCC3)ccc1OC`, the “activity change, negative = inhibition” value is reported as inactive: -8.84%. For `CC1CCCC(C)N1/N=C/c1ccc(O)c(O)c1` (configuration not stated), the Potency was inconclusive: 14.1 µM [falling, partial curve]. For `CCOC(=O)c1nnsc1-c1ccc(-c2snnc2C(=O)OCC)cc1`, the “activity change, negative = inhibition” value was inactive: -5.81%. In the case of `NC(=O)[C@@H]1CC2(CC(c3cccc(NC(=O)CC(c4ccccc4)c4ccccc4)c3)=NO2)CN1C(=O)COc1ccc(Cl)cc1` (some centres not stated), the “activity change, negative = inhibition” value is reported as inactive: -1.73%. With `COc1ccc(C(=O)NC(=S)Nc2ccc(S(N)(=O)=O)cc2)cc1` the “activity change, negative = inhibition” value was inactive: 2.76%. In the case of `O=C1C=CC(=O)N1c1ccc(Sc2ccc([N+](=O)[O-])cc2)cc1`, the Potency is reported as inconclusive: 31.6 µM [falling, single point]. With `Cc1cnc(NC(=O)c2ccccn2)s1` the Potency was active: 15.8 µM. In the case of `O=C(c1cc2n(n1)C(C(F)(F)F)CC(c1ccco1)N2)N1CCc2ccccc2C1` (configuration not stated), the “activity change, negative = inhibition” value is reported as inactive: 5.57%. In the case of `CSc1nc2sc(-c3ccccc3)cc2c(=O)n1N`, the Potency is reported as inconclusive: 2.51 µM [falling, full curve]. With `CN(C)c1ccc(/C=C/C=C2/C(=O)NC(=O)N(c3ccccc3)C2=O)cc1` the Potency was active: 12.6 µM. With `O=C(N1CCOCC1)C1(S(=O)(=O)c2ccccc2)CC=CC1` the “activity change, negative = inhibition” value was inactive: -3.5%. `Cc1ccc(N2C(=O)c3ccccc3C2O)nc1` (configuration not stated) was tested, and the Potency was active: 7.08 µM. In the case of `COCCn1c(/C=C/c2ccccc2)nc2ccccc21`, the Potency is reported as inconclusive: 15.8 µM [falling, partial curve]. `Cc1ccc(Nc2nc3ccccc3o2)cc1F` was tested, and the Potency was inconclusive: 25.1 µM [falling, single point]. For `Cc1cccc(-n2c(-c3csc(C(C)C)c3)n[nH]c2=S)c1`, the Potency was active: 10 µM. `CN(C)c1ccc(/C=C/C=C2/SC(=S)N(c3ccccc3)C2=O)cc1` was tested, and the Potency was active: 12.6 µM. In the case of `O=c1c2ccccc2nnn1CSc1ccccc1F`, the Potency is reported as inconclusive: 14.1 µM [falling, partial curve]. For `O=C(O)c1ccc2c(c1Nc1ccccc1)C(=O)c1ccccc1C2=O`, the Potency was inconclusive: 25.1 µM [falling, single point]. For `Clc1ccc(-c2noc(CCCOc3ccccc3)n2)cc1`, the “activity change, negative = inhibition” value was inactive: -1.88%. In the case of `O=C(c1ccc(F)cc1)c1cc2ccc(O)cc2oc1=O`, the Potency is reported as inconclusive: 20 µM [falling, partial curve]. With `CCn1c(/C=C/c2ccc(O)c(O)c2)nc2ccccc2c1=O` the Potency was inconclusive: 2 µM [falling, full curve, poor fit]. With `O=C(Nc1ccc2c(c1)OCO2)c1ccc(Br)o1` the Potency was active: 22.4 µM. `N/C(=N\OC(=O)CCC1CCCC1)c1ccccc1` was tested, and the Potency was inconclusive: 28.2 µM [falling, single point]. With `c1ccc(-c2nnc(-c3ccco3)o2)cc1` the Potency was inconclusive: 31.6 µM [falling, single point]. For `Cc1ccc(C(=O)Nc2ncc([N+](=O)[O-])s2)cc1`, the Potency was inconclusive: 15.8 µM [falling, partial curve]. With `CCSc1nnc(NC(=O)c2ccccn2)s1` the Potency was inconclusive: 20 µM [falling, partial curve].
